# Some of the results follow.
# B1: PX9961V-pdi-562-26-562 (Parabacteroides distasonis) (protein)
# chain: EIFSEITTDNYYQNSNNIYAALVNNYAKAFSTGWSDARYFLQEVTADQLMIPTRGKHGYNGGEYVRLHEHKWTVEENFVYNGWAAPFQGIALCNNTLSDFENLDFSTFKLTEETKNEYIAELRALRVWNYMFLIDFFRHVPIVTDIEEVKAQSTPLEVFNFMESELLAILPDLPKNRGVSRFDQAGVASILVRLYLNAEKWIGISKYDECEQMAQAILDGKYGEYSIDPDYRGPFRSGINGYRSKENIMEFAIKKNYFEASWLYNMWMHYQDRYSLDNDWQGWNGGNLAPSRDLYGNLYQDKLGMPFEKFPDGDIRKKAFRVISNDGDYEGFFLMGTQYKFDYEKGYGFTDEVITGTEEYNGKPLVYVDQVGRFSEGETGLAKGSHVIYGEENTGYRLIKFPWLPQSKDLFQMNSIPEIRLAEIYYSLAECKYRSGDKIGAARLLDVVRKRYYKAEDWSKFSYESNISKLTDDEFVDELGREFIGERHRRIDLIRWNRFSEGAWWDKTPDATNQDVFPIPYRALNANPLLKQTTAGF
# Legend:
# Assay in all cases: glycan array binding signal (z-score within array); higher = stronger binding
# Conditions in all cases: glycan notation: IUPAC condensed, linker removed
# [1] = biological target: Neu5Ac(a2-3)Gal(b1-3)GlcNAc(b1-2)Man(a1-3)[GlcNAc(b1-4)][Neu5Ac(a2-3)Gal(b1-3)GlcNAc(b1-2)Man(a1-6)]Man(b1-4)GlcNAc(b1-4)GlcNAc
# Outline: (§1)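 The binding signal is a Z-score computed within each array and averaged over linkers. Arrays of the same protein sequence at different concentrations or buffers were also averaged together. Data originate from 3228 arrays in the Consortium for Functional Glycomics database, kept only where the protein sequence was available.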
# [2] = biological target: Neu5Ac(a2-3)Gal(b1-3)GlcNAc(b1-2)Man(a1-3)[Neu5Ac(a2-3)Gal(b1-3)GlcNAc(b1-2)Man(a1-6)]Man(b1-4)GlcNAc(b1-4)GlcNAc
# Outline: as §1
# [3] = biological target: Neu5Ac(a2-3)Gal(b1-3)GlcNAc(b1-3)Gal(b1-3)GlcNAc
# Outline: as §1
# [4] = biological target: Neu5Ac(a2-3)Gal(b1-3)GlcNAc(b1-3)Gal(b1-4)GlcNAc
# Outline: as §1
# [5] = biological target: Neu5Ac(a2-3)Gal(b1-3)GlcNAc(b1-3)GalNAc
# Outline: as §1
# [6] = biological target: Neu5Ac(a2-3)Gal(b1-3)GlcNAc(b1-4)Gal(b1-4)Glc
# Outline: as §1
# [7] = biological target: Neu5Ac(a2-3)Gal(b1-3)GlcNAc(b1-6)GalNAc
# Outline: as §1
# [8] = biological target: Neu5Ac(a2-3)Gal(b1-3)GlcNAc6S
# Outline: as §1
# [9] = biological target: Neu5Ac(a2-3)Gal(b1-3)[Fuc(a1-4)]GlcNAc
# Outline: as §1
# [10] = biological target: Neu5Ac(a2-3)Gal(b1-3)[Fuc(a1-4)]GlcNAc(b1-3)Gal(b1-3)[Fuc(a1-4)]GlcNAc
# Outline: as §1
# [11] = biological target: Neu5Ac(a2-3)Gal(b1-3)[Fuc(a1-4)]GlcNAc(b1-3)Gal(b1-4)[Fuc(a1-3)]GlcNAc
# Outline: as §1
# [12] = biological target: Neu5Ac(a2-3)Gal(b1-3)[GlcNAc(b1-6)]GalNAc
# Outline: as §1
# [13] = biological target: Neu5Ac(a2-3)Gal(b1-3)[Neu5Ac(a2-6)]GalNAc
# Outline: as §1
# [14] = biological target: Neu5Ac(a2-3)Gal(b1-3)[Neu5Ac(a2-6)]GlcNAc(b1-3)[Fuc(a1-3)[Gal(b1-4)]GlcNAc(b1-6)]Gal(b1-4)Glc
# Outline: as §1
# [15] = biological target: Neu5Ac(a2-3)Gal(b1-3)]Neu5Ac(a2-3)Gal(b1-4)]GlcNAc
# Outline: as §1
# Neu5Ac(a2-3)Gal(b1-4)Glc = biological target: Neu5Ac(a2-3)Gal(b1-4)Glc
# Outline: as §1
# [16] = biological target: Neu5Ac(a2-3)Gal(b1-4)GlcNAc
# Outline: as §1
# [17] = biological target: Neu5Ac(a2-3)Gal(b1-4)GlcNAc(b1-2)Man
# Outline: as §1
# [18] = biological target: Neu5Ac(a2-3)Gal(b1-4)GlcNAc(b1-2)Man(a1-3)[GlcNAc(b1-4)][Neu5Ac(a2-3)Gal(b1-4)GlcNAc(b1-2)Man(a1-6)]Man(b1-4)GlcNAc(b1-4)GlcNAc
# Outline: as §1
# [19] = biological target: Neu5Ac(a2-3)Gal(b1-4)GlcNAc(b1-2)Man(a1-3)[Neu5Ac(a2-3)Gal(b1-4)GlcNAc(b1-2)Man(a1-6)]Man(b1-4)GlcNAc(b1-4)GlcNAc
# Outline: as §1
# [20] = biological target: Neu5Ac(a2-3)Gal(b1-4)GlcNAc(b1-2)Man(a1-3)[Neu5Ac(a2-3)Gal(b1-4)GlcNAc(b1-2)Man(a1-6)]Man(b1-4)GlcNAc(b1-4)[Fuc(a1-6)]GlcNAc
# Outline: as §1
# [21] = biological target: Neu5Ac(a2-3)Gal(b1-4)GlcNAc(b1-2)Man(a1-3)[Neu5Ac(a2-6)Gal(b1-4)GlcNAc(b1-2)Man(a1-6)]Man(b1-4)GlcNAc(b1-4)GlcNAc
# Outline: as §1
# [22] = biological target: Neu5Ac(a2-3)Gal(b1-4)GlcNAc(b1-2)[Neu5Ac(a2-3)Gal(b1-4)GlcNAc(b1-4)]Man(a1-3)[GlcNAc(b1-4)][Neu5Ac(a2-3)Gal(b1-4)GlcNAc(b1-2)[Neu5Ac(a2-3)Gal(b1-4)GlcNAc(b1-6)]Man(a1-6)]Man(b1-4)GlcNAc(b1-4)GlcNAc
# Outline: as §1
binder,measurement,setting,value
B1,glycan array binding signal (z-score),[1],0.213
same,glycan array binding signal (z-score),[2],-0.48
same,glycan array binding signal (z-score),[3],-0.65
same,glycan array binding signal (z-score),[4],-0.475
same,glycan array binding signal (z-score),[5],-0.531
same,glycan array binding signal (z-score),[6],-0.516
same,glycan array binding signal (z-score),[7],0.271
same,glycan array binding signal (z-score),[8],-0.515
same,glycan array binding signal (z-score),[9],-0.598
same,glycan array binding signal (z-score),[10],-0.607
same,glycan array binding signal (z-score),[11],-0.02
same,glycan array binding signal (z-score),[12],-0.487
same,glycan array binding signal (z-score),[13],-0.548
same,glycan array binding signal (z-score),[14],-0.421
same,glycan array binding signal (z-score),[15],-0.553
same,glycan array binding signal (z-score),Neu5Ac(a2-3)Gal(b1-4)Glc,-0.547
same,glycan array binding signal (z-score),[16],-0.65
same,glycan array binding signal (z-score),[17],0.032
same,glycan array binding signal (z-score),[18],-0.631
same,glycan array binding signal (z-score),[19],0.234
same,glycan array binding signal (z-score),[20],-0.037
same,glycan array binding signal (z-score),[21],-0.106
same,glycan array binding signal (z-score),[22],0.059
